Measurements taken from ChEMBL document CHEMBL1201862, “PubChem BioAssay data set” (2004).
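Briefly, cells in 96-well plates were exposed to five compound concentrations for 48 h, and endpoints were estimated by linear interpolation. GI50 = concentration required for 50% inhibition of growth.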 The source made the active and inactive calls. Rule as the data show it: active = GI50 up to about 1.1 µM and inactive = higher.

System: NCI-H322M
Experiment: DTP human tumour cell line panel, 48 h

Structure (SMILES) | GI50
N=C(N)N/N=C/c1cc(Cl)cc(Cl)c1O | inactive: 76.4 µM
Cc1cnc2nc(-c3cccc4ccccc34)cc(O)c2c1 | active: 0.00399 µM
O=C1CSC(c2c[nH]c3ccccc23)N1c1ccc(Cl)cc1 (stereo unspecified) | inactive: > 100 µM
COC(=O)c1c(O)ccc2c1c1c(n2Cc2ccccn2)C(=O)c2ccccc2C1 | inactive: > 100 µM
CC1=C[C@H](C[C@]2(C)c3c(c4c(C)cccc4oc3=O)O[C@@H]2C)OC1=O | inactive: > 100 µM
Cc1cc2c(c(C(N)=O)c1C)-c1cccc(Cl)c1C2=O | inactive: > 100 µM
COc1ccc(-n2c(C)nc3ccc(/N=C/c4ccccc4)cc3c2=O)cc1 | inactive: > 100 µM
O=C(c1cccs1)N(C(=S)N1CCN(c2ccccn2)CC1)C1CCCCC1 | inactive: > 100 µM
CCN1C/C(=C\c2ccc(Cl)cc2)C2=NN(c3ccccc3)C(c3ccc(Cl)cc3)C2C1 (stereo unspecified) | inactive: > 100 µM
CC(C)NCCCC(C)Nc1ccnc2ccc3nn(C)nc3c12 (stereo unspecified) | inactive: 40.6 µM
CCN1CCC(O)(/C=C/c2ccc(OC)cc2)C(C(=O)/C=C/c2ccc(OC)cc2)C1 (stereo unspecified) | inactive: 14.2 µM
C[n+]1[n-]o/c(=N\N=O)c1-c1cc(-c2/c(=N/N=O)o[n-][n+]2C)cc(-c2/c(=N\N=O)o[n-][n+]2C)c1 | inactive: > 100 µM
Cn1c2ccccc2n2c3ncccc3c(=O)cc12 | inactive: 53.8 µM
CC1(O)CCC2(C)C(=O)C1(C)CCC21OCCO1 (stereo unspecified) | inactive: > 100 µM
CC(=O)Oc1c2oc3cc(O)c(O)cc3c2c(OC(C)=O)c2oc3cc(O)c(O)cc3c12 [POLYOZELLIN] | inactive: 58.5 µM
C[C@@]12CCC(=O)c3coc(c31)C(=O)c1cc3c(cc12)C(=O)C=CC3=O [HELENAQUINONE] | inactive: > 92.3 µM
COc1nc(Cl)nc(N[C@H](C)c2c3ccccc3cc3ccccc23)n1 | inactive: 2.2 µM
C/C=C\C(CC(=O)O)CC(=O)NCCC1CN(S(=O)(=O)C(F)(F)F)c2ccccc21 (stereo unspecified) | inactive: > 100 µM
CC1=NN(c2nc(N)nc(CCl)n2)CC1 | inactive: 49.8 µM
COC(=O)C1(F)C(=O)NC(=O)NC1O (stereo unspecified) | inactive: > 100 µM
COC(=O)C(CCC1CC(OC)N(C(=O)OCc2ccccc2)C1)/N=C/c1ccccc1 (stereo unspecified) | inactive: > 100 µM
COc1cc(C(CC(OC)OC)=C(C#N)C#N)cc(OC)c1OC | inactive: 17.3 µM
COc1ccccc1NC(=S)Nc1cc(C)cc(C)n1 | inactive: > 100 µM

Structure (SMILES) | GI50
COc1ccccc1C(=O)OCC1CCCN2CCCCC12 (stereo unspecified) | inactive: 79.3 µM
COC(=O)c1c(OC(C)=O)ccc2c1c1c(n2C)C(=O)c2ccccc2C1=O | inactive: 23.6 µM
C/C=C/[C@H]1O[C@@](O)([C@@H](C)[C@H](O)[C@H](C)[C@H]2OC(=O)/C(OC)=C/C(C)=C/[C@@H](C)[C@@H](O)[C@@H](CC)[C@@H](O)[C@H](C)C/C(C)=C/C=C/[C@@H]2OC)C[C@H](OC2CC(O)C(O)C(C)O2)[C@@H]1C (stereo partly specified) | inactive: 3.18 µM
COc1cc2c(c(O)c1O)-c1ccc(OC)c(=O)cc1C(NC(C)=O)CC2 (stereo unspecified) | inactive: 43 µM
CSc1cc(Cl)c(C)cc1S(=O)(=O)NC(=O)NNc1cccc(C(F)(F)F)n1 | inactive: > 100 µM
Cc1cccc(CC(Cc2ccc(C)cc2C(=O)O)C(=O)O)c1 (stereo unspecified) | inactive: > 100 µM
CCOC(=O)Nc1cc2c(c(N)n1)N=C(c1ccccc1)CN2 | active: 0.01 µM
CC(=O)c1cccc(NC(=O)C(=O)c2c(O)oc3ccccc3c2=O)c1 | inactive: > 100 µM
CC1(C)C2=CCCC(=O)[C@@]2(C)CC[C@@H]1O | inactive: > 100 µM
CC(C)(C)c1cc(OCc2nn3c(Cc4ccccc4)nnc3s2)c(Cl)cc1OCc1nn2c(Cc3ccccc3)nnc2s1 | inactive: > 100 µM
Cc1nnc2n(c1=O)CCN2C | inactive: > 100 µM
O=C1C=CC2(CCCCCCC2=O)CC1 (stereo unspecified) | inactive: > 100 µM
Clc1nc(-c2ccccc2)nc(Cl)c1Cl | inactive: 14.1 µM
c1ccc2c(c1)nc1n2CSCC1 | inactive: > 100 µM
O=c1c(Br)c(-c2ccccc2)[s+]([O-])c2ccccc12 (stereo unspecified) | inactive: 16.7 µM
C/C(CC(=O)Nc1cc(Cl)c(Cl)cc1Cl)=N\NS(=O)(=O)c1ccc(C)cc1 | inactive: 54.7 µM
O=S1(=O)NC2CCC3NS(=O)(=O)NC4CCC(N1)N4S(=O)(=O)N23 (stereo unspecified) | inactive: > 100 µM
CCc1cccc(C(C)C)c1N1C(=O)C(=O)C(c2nc3ccccc3s2)C(=O)C1=O | inactive: > 50 µM
COC(=O)C1(C(=O)OC)CC(=O)c2c(OC(=O)c3cccc(OC)c3C#N)ccc(OC(=O)c3cccc(OC)c3C#N)c2C1 | inactive: > 100 µM
CC1(C)OC2[C@@H](CO[C@@]3([C@H]4OC(C)(C)O[C@@H]4CO)OC(C)(C)O[C@@H]23)O1 (stereo partly specified) | inactive: > 100 µM
CSC1CC2C(CC1(C)SC)C2(C)C (stereo unspecified) | inactive: > 100 µM
COc1ccc(Nc2nc(N)c(C(=O)c3ccccc3)s2)cc1 | active: 0.46 µM
c1ccc(-c2cnc3nc4ccccc4nc3n2)cc1 | inactive: 5.37 µM

Structure (SMILES) | GI50
C/C(=N\NC(N)=S)C(CN(CC(C)C)CC(C)C)C(=O)Nc1ccc(C)cc1C (stereo unspecified) | inactive: > 100 µM
O=Cc1ccc2c(c1)CC1(Cc3ccccc3C1)C2 | inactive: 71.3 µM
COC(=O)c1ccccc1C1CN=NC12Cc1cc(C)cc(C)c1C2=O (stereo unspecified) | inactive: 50.4 µM
O=C1c2ccccc2C2=Nc3ccncc3CN12 | inactive: > 100 µM
C[C@@H](c1ccccc1)N(CC#N)C1CCC[C@H]1O (stereo partly specified) | inactive: > 100 µM
Cc1c(NC(=O)CSC(=S)N2CCN(Cc3ccccc3)CC2)c(=O)n(-c2ccccc2)n1C | inactive: > 100 µM
COc1c2ccccc2c(OC)c2nc(C)ccc12 | inactive: > 100 µM
COC(=O)CCC(=O)NC1C2CC3CC(C2)CC1C3 (stereo unspecified) | inactive: > 100 µM
Cn1c(=O)c2c(nc(NCCNc3nc4c(c(=O)n(C)c(=O)n4C)n3C)n2C)n(C)c1=O | inactive: > 100 µM
Cc1cccc(C)c1NC(=O)CCC(=O)NNC(=O)c1cc(O)c2ccccc2c1 | inactive: 44.3 µM
Nc1ncnc2c1ncn2[C@H]1C=C[C@@H](NO)C1 | inactive: > 100 µM
S=c1sc2c(Cl)ncnc2n1-c1ccccc1 | inactive: 13.6 µM
CCCc1nnc2sc(COc3ccc(OCc4nn5c(CCC)nnc5s4)c(Cl)c3)nn12 | inactive: 30.4 µM
CC1(C)C(=O)N(O)C(C)(C)N1O | inactive: > 10 µM
CC(C)(C)n1c(=O)n2c(-c3ccccc3)c(-c3ccccc3)n2c1=O | inactive: > 100 µM
Cc1c2c(n(CCc3ccccc3)c1C)NN=C(C#N)S2(=O)=O | inactive: > 100 µM
COc1cc(Nc2nc3ccccc3nc2C(C)C)cc(OC)c1OC | inactive: 84.9 µM
CCN(CC)CCn1c(C(C)(C)C)nc2ccccc21 | inactive: > 100 µM
CN1/C(=C/C(=O)c2ccc(Cl)cc2)Nc2ccccc21 | inactive: 78.3 µM
O=C1CN2C(Cl)(Cl)C2(c2ccccc2)c2cc(Cl)ccc2N1CC(F)(F)F (stereo unspecified) | inactive: 27.5 µM
O=C(/C=C/c1ccc(/C=C/C(=O)c2ccc(O)cc2)cc1)c1ccc(O)cc1 | inactive: > 100 µM
CNC(=O)N(CCCC(NC(C)=O)C(=O)NCc1ccccc1)Cc1ccccc1 (stereo unspecified) | inactive: > 100 µM
CSc1nn(C)cc2ncnc1-2 | inactive: > 100 µM

Structure (SMILES) | GI50
COC(=O)C12CC3CC(C1)CC(C(=O)OC)(C3)C2 | inactive: > 100 µM
C=C1N(S(=O)(=O)c2ccc(C)cc2)C(=O)OCC12CCCC2 | inactive: > 100 µM
CCCN(CCCN)/[N+]([O-])=N\O | inactive: > 100 µM
N=C(N)NS(=O)(=O)c1ccc(NC(=O)c2ccc3nc4ccccc4c(O)c3c2)cc1 | inactive: > 100 µM
Cc1ccc2nc3[nH]nc(N)c3nc2c1 | inactive: > 100 µM
CO/N=C(/C(=O)Nc1c[n+](CC(=O)[O-])cs1)c1csc(N)n1 | inactive: > 100 µM
COc1cc(C2c3cc4c(cc3CC3COC(=O)N32)OCO4)cc(OC)c1OC (stereo unspecified) | inactive: 5.85 µM
COC(=O)/C=C(\S/C(=C(/c1ccc(OC)cc1)n1cc(C(=O)OC)c(C(=O)OC)n1)c1ccc(OC)cc1)C(=O)OC | inactive: > 100 µM
O=S(=O)(O)c1ccc(/N=N/c2nc(C(F)(F)F)c(C(F)(F)F)[nH]2)cc1 | inactive: 31.6 µM
Cc1cccc2c1[C@]13OC(C)[C@]4(C)CC5OC(=O)[C@@]1(C)[C@@H]5[C@]34C(=O)O2 (stereo partly specified) | inactive: > 100 µM
CC(C)CCC[C@@H](C)[C@H]1CC[C@H]2[C@@H]3CC[C@H]4C[C@H](N)CC[C@]4(C)[C@H]3CC[C@]12C | inactive: 12.2 µM
O=c1c2ccccc2nc(-c2ccccc2)n1NC(=S)Nc1cccc(Cl)c1 | inactive: > 100 µM
CC(Oc1ccc(Cl)cc1Cl)C(=O)NN1C(=O)CSC1c1ccccc1 (stereo unspecified) | inactive: 55.8 µM
CCCCCc1nnc(NS(=O)(=O)c2ccc(NC(=O)OCC(C)C)cc2)s1 | inactive: 44.4 µM
COC(=O)C1=C(C(=O)OC)C2(C)C=CC1O2 (stereo unspecified) | inactive: > 100 µM
COc1ccc(/C(=N\NC(=O)C(=O)NN)C(c2ccc(OC)cc2)C2(O)C(=O)Nc3ccccc32)cc1 (stereo unspecified) | inactive: > 100 µM
COc1cccc(C(C#N)NNC(=O)c2c(Cl)c(Cl)c(Cl)c(Cl)c2-c2nc3cc(C(=O)c4ccccc4)ccc3[nH]2)c1O (stereo unspecified) | inactive: 11.9 µM
CC(=O)N/C(=C\c1ccc(/C=C(\NC(C)=O)C2=NC3C(=O)c4ccccc4C(=O)C3N2)cc1)C1=NC2C(=O)c3ccccc3C(=O)C2N1 (stereo unspecified) | inactive: 12.4 µM
CC(C)CC1C(=O)NCCC(NC(=O)C(N)Cc2ccc(O)cc2)C(=O)NC(Cc2ccccc2)C(=O)NC(Cc2ccccc2)NC1=O (stereo unspecified) | inactive: > 100 µM
CCCCN1C(=O)C2Cc3c([nH]c4ccccc34)C(c3cccc(O)c3)N2C1=O (stereo unspecified) | inactive: 17.4 µM
Cn1c2ccccc2c2c3c(=O)[nH][nH]c(=O)c3c3c4ccccc4n(C)c3c21 | inactive: > 100 µM
CCCOP1(=O)C=CC(Cl)=C(C)C1 (stereo unspecified) | inactive: > 100 µM
